Here are results for 167 variants from the RNAGym collection of RNA variant scans (doi:10.7554/elife.90254).

The source gives no read counts; variants with many changes may rest on few reads.

To fix the notation:
B1: LINE1-mini (parent)
chain: GGCAGAGCUCAACACAGCGUGGCAAAGUGGCUGUGGCUAGACUGCC

The variants in the data set derive from B1. In words: self-cleavage, relative activity (ratio to wild type); higher = more cleavage; in vitro, sequencing; the parent is a self-cleaving ribozyme.
Turning to A14C G21A C46G, the self-cleavage was 0.09.
Consider A14G C15U C18G, for which the self-cleavage stood at 0.07.
In the case of A16U G19U U28G, the self-cleavage stood at 1.59.
As to C10U C23U U28A, the self-cleavage stood at 0.29.
The value for G1C G33A G35U C37A U38C was 0.01.
G7U U9C C18U A26U C31A U38C: the self-cleavage was determined as 0.04.
G2C A4C G22U: the self-cleavage amounted to 0.03.
Regarding C3U G5C C10U A39U, the self-cleavage came out at 0.06.
In the case of C3A G5U A11C G27C C31U, the self-cleavage is 0.
As to A25G G40U C45A, the self-cleavage is 0.06.
For A16U G29U U34G A41U, the self-cleavage was determined as 0.08.
Take A16G C18U G22A G33U: the self-cleavage is 0.03.
On to G21C G22C C37G A39U, for which the self-cleavage amounted to 0.01.
In the case of A4C C10A A24C G27A, the self-cleavage came to 0.02.
Consider C10U A16G G19U G44A, for which the self-cleavage turned out to be 0.05.
In the case of A14G A16U A25U C37U A41U G44C, the self-cleavage came to 0.02.
For the variant C3G G17A C18U A39G C42A, the self-cleavage turned out to be 0.03.
As to G5A A6G U28A G33U, the self-cleavage worked out at 0.07.
To G21A G40C U43G belongs 0.19; to A4U A11G G40C, 0.05.
In the case of G30A G40A C46U, the self-cleavage is 0.06.
The value for G2U C3A G7C A16C G17A U32C G40U was 0.09; that for C15U U43C C46G was 0.14.
In the case of G5U A12U G30A G35C C37U, the self-cleavage stood at 0.09.
The value for G2C A12C G17U U32A was 0.05; that for C15G C31U C37U was 0; that for U9A A25U G27A was 0.19.
The value for C18G G36U U38C U43G was 0; that for G1C G7A A16G was 0.02; that for G29A A39U G40A was 0.08.
G22U A26C A41U: the self-cleavage amounted to 0.47.
The value for C8G C10A C42G U43A was 0.02; that for C18A G21A G35A C37U was 0.02.
The value for G17A G44C C45U was 0.04; that for A6C A25U G29A U38C was 1.01.
As to G5U C37A G40C, the self-cleavage is 0.02.
Regarding A39U A41G C42G, the self-cleavage came out at 0.02.
As to C18U G22U C23U C42A, the self-cleavage was 0.03.
Turning to G5C A6C U9A G33U U38A, the self-cleavage was 0.06.
For the variant A26C U28G U38G, the self-cleavage is 0.
With U20G U28C A41G, the self-cleavage was determined as 0.08.
In the case of C37U A41G C45G, the self-cleavage worked out at 0.02.
Take C31U U38A C42A: the self-cleavage amounted to 0.1.
As to C13A G17U C18U, the self-cleavage stood at 0.05.
Take C10G A26U C46A: the self-cleavage amounted to 0.09.
Consider C10U C18A G44U, for which the self-cleavage turned out to be 0.01.
As to G1U A14U C42G C45U, the self-cleavage was 0.16.
Regarding C3A A11G U34G C46A, the self-cleavage is 0.06.
On to C3A A14C C15U A16U C18G, for which the self-cleavage turned out to be 0.3.
The value for U9C A12U C13G G19C A24U G44A was 0.02.
Take A12G G30A A39G: the self-cleavage came out at 0.
G7U A16U G44C: the self-cleavage turned out to be 0.16.
The value for U20A A26U G27C C37A U38C was 0.01.
C10U A24U G27U C45G: the self-cleavage amounted to 0.01.
As for G1C C10A C37G A41U, the self-cleavage is 0.01.
The value for C18U U32A G35A was 0.08; that for U9G G29C U32G C37U was 0.07; that for G1A G2A G7A G17U U28G U32C A41U C42G was 0.07.
Consider A26G U43G C46A, for which the self-cleavage was 0.02.
C18A G33C C46G: the self-cleavage is 0.04.
C8G A16C G29C: the self-cleavage came to 0.14.
Consider G5C G27C G33C G35A, for which the self-cleavage is 0.02.
Regarding U32A U34G C42G, the self-cleavage was found to be 0.02.
The value for A12G A26C G30U U43G C45G was 0.01; that for A6G C10A A16U A39C C46A was 0.01; that for A6U C8U U28A G35A G40U C42A C45G C46U was 0.11.
As to C15A A25G U32A G44U C46A, the self-cleavage stood at 0.02.
The value for C18A G22A U28C was 0.78.
As to G5U U20G A41U C45G, the self-cleavage was 0.04.
Take A25G G29U U32C G35U U38A: the self-cleavage was 0.02.
Take C3A C8A U38C: the self-cleavage came to 0.31.
Consider U9A G33U C46A, for which the self-cleavage is 0.06.
To G1A C3U A14U belongs 0.54.
To A4U C10G C42G belongs 0.01; to G7C C10G U38C U43G, 0.02.
G17A G29U U34C: the self-cleavage was found to be 0.01.
As for C3A C18G G40A, the self-cleavage was 0.18.
On to G17U G22A A39C G40C, for which the self-cleavage turned out to be 0.05.
Take C3U G21C C37G C45A: the self-cleavage came to 0.06.
On to G5A G29C G35C A41C, for which the self-cleavage came to 0.05.
On to U20G G36U U38C, for which the self-cleavage is 0.05.
With G21U U34G G35U, the self-cleavage is 0.06.
For the variant U9A A39G U43C G44U, the self-cleavage stood at 0.02.
C8A G22U A24U A41C: the self-cleavage came out at 0.11.
Regarding C13A C15A G40A, the self-cleavage is 0.22.
As for C3A U20C C23A G29A A39G, the self-cleavage was found to be 0.82.
With G22A G30U G33U, the self-cleavage amounted to 0.18.
With G2C G35C A41U, the self-cleavage is 0.02.
Turning to C8A C10A A11G A14G, the self-cleavage is 0.01.
The value for A14C U20C G27A was 0.11.
As to A14G A25C G40U, the self-cleavage is 0.18.
The value for C3G G7U C10U was 0.13; that for G17C A25C U34G was 0.03.
Turning to A26G G36C A41U, the self-cleavage came to 0.4.
Take A4G C8G C18G: the self-cleavage worked out at 0.02.
C10A G19C U20C G27C C31A G36C G40U: the self-cleavage was 0.
Take A12U U20A C23U G36C U38C A41G C45U: the self-cleavage worked out at 0.03.
The value for A12U C13A G22U U43C was 0.06; that for C10A C18U U43A was 0.03.
In the case of G7A C8A G30A C37U, the self-cleavage worked out at 0.21.
A6U U20A G21U: the self-cleavage came out at 0.4.
As for U9A C23G A25U G29U C42U C46A, the self-cleavage was 0.08.
Turning to G2C G5C G7U A39C G44A C46A, the self-cleavage worked out at 0.03.
As for U9C C13G C31G, the self-cleavage worked out at 0.03.
For C8G C18U G22C G36U, the self-cleavage turned out to be 0.04.
To G17C G27C C37A A41G belongs 0.01; to A6U G7C G17A C42G C45A, 0.05; to C3G C13G A14C G40U C46U, 0.04.
The value for A24C G44A C45U was 0.01; that for A4G A11G G19C G33A was 0.04.
As for A4G C18U A24U, the self-cleavage was found to be 1.04.
To A6C G35U C42U belongs 0.31.
To A25G A26G C37U belongs 0.05; to C8G A26C G27A, 0.16.
As for G29A C37G C42U C45A, the self-cleavage turned out to be 0.16.
To G1C C8G C15U G40A belongs 0.03; to A12U A24C G30A, 0.09; to G5U C15G U20C G40U, 0.01.
As to U9G G35A A39G, the self-cleavage was 0.07.
The value for G21U U32C G33A was 0.05; that for A12G G17U G19A G40U was 0.01; that for A12U G21U G40U U43A was 0.01.
Regarding G27A G36U A41G, the self-cleavage stood at 0.03.
Turning to G5C A25U C31U U32C G35C C37U C45G, the self-cleavage amounted to 0.02.
Turning to G7A C10A C13G, the self-cleavage is 0.01.
C18G U20A C37G C46G: the self-cleavage is 0.02.
As to C8U A12G C13A G30A, the self-cleavage is 0.03.
To G1U A24U A25U G33U U38G belongs 0.03.
For the variant C10A G17C C37A, the self-cleavage was determined as 0.03.
G7C C18G G36C: the self-cleavage amounted to 0.18.
Take G2A C23U A24C C31U: the self-cleavage turned out to be 0.12.
For C8G A12U C18U A24U A25G, the self-cleavage turned out to be 0.
Consider G2C C13G G22C C23A G29U, for which the self-cleavage amounted to 0.22.
To G5A G7U A11C G33C belongs 0.01.
For C15A A26G G27C U38C, the self-cleavage came to 0.08.
Take C13U G33A U34C G36U: the self-cleavage was determined as 0.12.
As to G1U C8A A11G G19A A26C G40A, the self-cleavage worked out at 0.01.
Regarding C10G G27U G30A, the self-cleavage was determined as 0.27.
The value for A12C A24U A26U G36U was 0.
For G1A G33U U34G G35U C45A, the self-cleavage stood at 0.03.
As to G1C G2C A16G, the self-cleavage was 0.01.
The value for C15U G30A C31U A39G A41C was 0.02; that for C3G C8U C31U was 0.27.
C8A C31U U32A A41G: the self-cleavage was 0.17.
As to G21U U34C C45U, the self-cleavage was 0.07.
For the variant G1C G2U G5C G35U C42G, the self-cleavage was determined as 0.03.
The value for A4U C23G G35C A39U was 0.09.
Take G7C G21U C37A: the self-cleavage stood at 0.02.
With G17A A39C A41C C46A, the self-cleavage came to 0.03.
On to C13A U32A G36A, for which the self-cleavage is 0.04.
As to C10A A14G A26G G36U, the self-cleavage came to 0.01.
As to C8U A14G A16G, the self-cleavage came to 0.07.
In the case of C23U G33A G36A C37G, the self-cleavage came out at 0.03.
Turning to C3G G5U A6C, the self-cleavage came to 0.98.
A39C A41C C46G: the self-cleavage amounted to 0.05.
On to U20A G22A G33U C37A, for which the self-cleavage came to 0.06.
Consider G7U G30U U38A, for which the self-cleavage was determined as 0.06.
For the variant A11G A12U A16U U34G, the self-cleavage came to 0.
Regarding C8G C13G G21C, the self-cleavage stood at 0.04.
A6G C8U U9C G22C: the self-cleavage amounted to 0.04.
To C3A G40C C42U belongs 0.05.
To C13A G19A C31G U34A belongs 0.02; to U9A C15A G29U G44A C45A, 0.05; to G2C G21A C23G G27U U34A, 0.05.
As to A26U G35C G36U, the self-cleavage was 0.06.
Regarding A11C G21C U34C G40A U43C, the self-cleavage was 0.
For A11U G17U G30C G35A, the self-cleavage worked out at 0.
